Experimental data from PMC13541613.
This is a selection; strong and weak results do not stand in their true shares. At the low end of the ranking, values are background and their order means little.

Biological target: ZNF721 DBD1 (UniProt Q8TF20-2)
Assay: HT-SELEX
Settings: 20 mM HEPES pH 7, 140 mM KCl, 5 mM NaCl, 1 mM K2HPO4, 2 mM MgSO4, 100 uM EGTA, ZnSO4, 0.1% Tween20; room temperature, 1 h; high values mean tight binding; double strand, one strand shown

| Sequence | binding signal (relative 10-mer count) |
| --- | --- |
| AACAAAACAG | 0.000826 |
| CCTCCCCTCC | 0.00812 |
| ACGAAAACAG | 0.000642 |
| CAGCGTTTCC | 0.000229 |
| GGGCGGGGGA | 0.00482 |
| AAAAACAGTG | 0.000826 |
| AAAAAAAAGG | 0.00477 |
| GAAACACTGC | 0.000596 |
| AACAAGCAGT | 0.017 |
| ACCGCCCCAC | 0.0033 |
| CTGTTTTTTC | 0.000321 |
| AACAGCATCC | 0.000871 |
| CCAAAAACAG | 0.00055 |
| AACAGCGTAT | 0.00055 |
| CCACCACGCC | 0.00316 |
| ACAAAGCAGC | 0.000642 |
| AAAACAGCGT | 0.00055 |
| CCCCACCCGC | 0.00651 |
| ATAAAAACAG | 0.000459 |

| Sequence | binding signal (relative 10-mer count) |
| --- | --- |
| AACAGCATAC | 0.000963 |
| CCGCCCTCCC | 0.00642 |
| AAACTAGCAT | 0.00055 |
| AAACAGAGTA | 0.000183 |
| AACAAACAGC | 0.000642 |
| AACAGTGTAT | 0.000413 |
| AAAAAACAGC | 0.00055 |
| CCGCCCCCTC | 0.00573 |
| AACGCTGCTT | 0.000688 |
| AAACAGTGTT | 0.000596 |
| GAAAACAGCA | 0.000688 |
| CCACCACCAC | 0.00688 |
| AAACGCTGTT | 0.000138 |
| AGAAAACAGC | 0.000321 |
| CCTACCCCCC | 0.00555 |
| ACACTGCTTG | 0.000826 |
| CCGCCCACCA | 0.00477 |
| GAGACACTGC | 0.000321 |
